# Measurements from PubChem BioAssay AID2147 (National Center for Advancing Translational Sciences (NCATS), 2009).
# Where “and” joins values, the source holds several entries; their conditions need not be identical. Identical values can stand only once. Hit rate of the full screen: of about 230,000 compounds, about 3,600 (1.6%) were called active. Inconclusive means that the source gave no clear call. Such entries were picked first, then a sample of the others. Calls follow the shape of the dose curve; as a rule, active = well fitted inhibition curve with a large enough effect (not every such curve was filed as active); inconclusive = small, poorly fitted or top-dose-only effect, or another doubt; inactive = no such curve, though single readings can be large or run the other way. Potencies of inconclusive entries are doubtful fits and often do not repeat.
# Target: Lysine-specific demethylase 4E (Homo sapiens) (UniProt B2RXH2)
# Chain of UniProt B2RXH2 (B2RXH2 whole entry, looked up, the tested form may be a part): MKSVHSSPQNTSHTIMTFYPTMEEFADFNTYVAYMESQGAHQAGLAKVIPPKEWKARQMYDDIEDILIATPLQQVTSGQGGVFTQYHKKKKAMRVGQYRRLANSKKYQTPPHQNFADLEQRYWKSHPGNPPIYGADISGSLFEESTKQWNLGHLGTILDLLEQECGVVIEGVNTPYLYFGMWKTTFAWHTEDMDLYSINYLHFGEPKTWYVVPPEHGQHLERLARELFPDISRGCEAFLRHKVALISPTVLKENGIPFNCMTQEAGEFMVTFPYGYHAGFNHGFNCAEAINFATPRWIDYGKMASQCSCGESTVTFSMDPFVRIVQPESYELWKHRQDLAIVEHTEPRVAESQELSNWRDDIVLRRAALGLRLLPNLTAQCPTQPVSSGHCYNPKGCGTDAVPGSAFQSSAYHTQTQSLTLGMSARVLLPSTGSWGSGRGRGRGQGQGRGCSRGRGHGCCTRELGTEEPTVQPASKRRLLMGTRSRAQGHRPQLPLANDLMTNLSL
# Test: qHTS Assay for Inhibitors of Human Jumonji Domain Containing 2E (JMJD2E)
# Conditions: JMJD2E catalytic domain, FDH-coupled NADH fluorescence (FDH is formaldehyde dehydrogenase); series mostly up to 57.1 µM; activity change, negative = inhibition: at the top concentration
# Also: nearly all actives have a fitted effect of over 50% in size.
# 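For activity change, negative = inhibition in this document: 0% = wells with enzyme and -100% = buffer wells without enzyme.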
# Potency is read from the fitted curve at half-maximal effect; tags tell the direction and shape of the fitted curve.
SMILES,Potency,"activity change, negative = inhibition"
CCOC(=O)c1c(NC(=O)c2ccccc2Cl)sc2c1CCc1ccccc1-2,"inconclusive: 31.6 µM [inhibitor, partial curve]",–
CC(=O)NC(=S)Nc1ccc2oc(=O)ccc2c1,–,inactive: -8.69%
Cc1ccc(-c2cc(-c3n[nH]c(=S)n3C)c3ccccc3n2)cc1,"inconclusive: 31.6 µM [inhibitor, single point]",–
Cc1ccccc1C(=O)NC(=S)NCc1cccnc1,–,inactive: -7.61%
CC(=O)c1cccc(NC(=S)NC(=O)CC(C)C)c1,–,inactive: -5.86%
O=C(N/N=C/c1cn(CCOc2ccccc2)c2ccccc12)c1ccncc1,"inconclusive: 35.5 µM [inhibitor, single point]",–
CCOC(=O)N1CCC(N2CC34C=CC(O3)C(C(=O)Nc3ccc(F)cc3)C4C2=O)CC1 (configuration not stated),–,inactive: -2.3%
Cc1cc(C)nc(Nc2ncn[nH]2)n1,"inconclusive: 39.8 µM [inhibitor, single point]",–
Cc1ccc2c3c([nH]c2c1C)-c1nonc1CC3,"inconclusive: 39.8 µM [inhibitor, single point]",–
COc1ccccc1-c1nc(NCc2cnc(C)cn2)c2ccccc2n1,"inconclusive: 25.1 µM [inhibitor, partial curve]",–
Cc1ccc(C(C)C)c(OCCNC(=S)Nc2cccc3ccccc23)c1,"inconclusive: 39.8 µM [inhibitor, single point]",–
COC(=O)CN(C)C1CC(=O)N(c2ccc(Cl)cc2)C1=O (configuration not stated),–,inactive: -5.64%
N#Cc1c(NCCN)nc(-c2ccco2)c2c1CCCC2,"inconclusive: 25.1 µM [inhibitor, partial curve]",–
Cc1ccc(-c2cc(C(=O)N3CCN(c4ncccn4)CC3)c3ccccc3n2)cc1,"inconclusive: 28.2 µM [inhibitor, partial curve]",–
Cc1nn(Cc2ccc(C(=O)Nc3ccc(C(=O)OC(C)C)cc3)o2)c(C)c1Cl,"inconclusive: 39.8 µM [inhibitor, single point]",–
CN(C)CC#CCCCCCCC#CCN(C)C,–,inactive: -11.1%
O=C1OCC2=C1C(c1ccc(F)cc1)c1cc3c(cc1N2)OCO3 (configuration not stated),"inconclusive: 31.6 µM [inhibitor, partial curve]",–
O=C(COC(=O)c1ccccc1Nc1ccc(SC(F)F)cc1)NC1CC1,"inconclusive: 39.8 µM [inhibitor, single point]",–
CCCc1cc2c(=O)c(-c3ccc4c(c3)OCCO4)coc2cc1OS(C)(=O)=O,–,inactive: -14%
O=C(O)CCCC(=O)Nc1cccc(-c2nc3ccccc3[nH]2)c1,"inconclusive: 31.6 µM [inhibitor, partial curve]",–
COCCNCCCOc1ccc(Cl)cc1Br,"inconclusive: 31.6 µM [inhibitor, single point]",–
COc1ccc(NS(=O)(=O)c2ccc(O)c(C(=O)OCC(=O)Nc3ccc4c(c3)OCCO4)c2)cc1,–,inactive: -7.1%
Cc1c(C)n(CCC#N)c2ccccc12,"inconclusive: 39.8 µM [inhibitor, single point]",–
COC(=O)c1cccc(NC(=O)Cc2nc(-c3ccccc3)sc2-c2ccc(C)cc2)c1,"inconclusive: 39.8 µM [inhibitor, single point]",–

SMILES,Potency,"activity change, negative = inhibition"
COc1cccc2cc(C(=O)NCCC3=CCCCC3)c(=O)oc12,"inconclusive: 39.8 µM [inhibitor, single point]",–
O=C(N/N=C/c1cnc(N2CCCCC2)s1)c1ccc(C(F)(F)F)cc1,"inconclusive: 31.6 µM [inhibitor, single point]",–
O=C(COc1c(Cl)cccc1Cl)NN1C(=O)CSC1=S,–,inactive: -1.78%
Cc1ccc(OC/C(O)=C(\C#N)c2nc3ccccc3s2)cc1,–,inactive: -0.174%
CCOC(=O)c1sc(NC(=O)c2ccccc2)cc1C,"inconclusive: 28.2 µM [inhibitor, partial curve]",–
O=C(CN(Cc1ccccc1)S(=O)(=O)c1ccc(Br)cc1)NCc1ccco1,–,inactive: 18%
Cc1c(C(=O)Nc2ccccc2)oc2c1C(=O)CC(C)(C)C2,–,inactive: -4.69%
Cc1cc(O)ccc1Nc1nc2ccccc2nc1Nc1ccc(O)cc1C,active: 25.1 µM,–
Oc1ccc(/C=C\c2cc(O)cc(O)c2)cc1,"inconclusive: 12.6 µM [inhibitor, partial curve] and inconclusive: 28.2 µM [inhibitor, partial curve]",–
CCCCNC(=O)c1cc(C)nc2ccccc12,–,inactive: 4.03%
Brc1ccc(OCCCCCN2CCOCC2)cc1,"inconclusive: 39.8 µM [inhibitor, single point]",–
COc1cc(CNc2ccc3[nH]c(=O)[nH]c3c2)ccc1OCC(=O)NC(C)(C)C,"inconclusive: 28.2 µM [inhibitor, partial curve]",–
CN1CCN(CC/C=C2/c3ccccc3Sc3ccc(S(=O)(=O)N(C)C)cc32)CC1,"inconclusive: 25.1 µM [inhibitor, single point]",–
CCOC(=O)c1csc(NC(=O)CSc2nnnn2-c2ccc(OC)cc2)n1,–,inactive: -3.09%
Cc1nc(-c2ccccc2)c(-c2ccccc2)[nH]1,"inconclusive: 28.2 µM [inhibitor, partial curve]",–
Cc1nn(-c2cccc(Cl)c2)c2nc(-c3ccco3)cc(C(=O)O)c12,"inconclusive: 25.1 µM [inhibitor, partial curve]",–
CCc1cccc(NC(=O)Cn2ncn3c(cc4ccccc43)c2=O)c1,"inconclusive: 31.6 µM [inhibitor, partial curve]",–
COc1ccc(/C(O)=C2\C(=O)C(=O)N(CCN(C)C)C2c2cc(OC)c(OC)c(OC)c2)c(C)c1 (configuration not stated),–,inactive: 7.19%
CCOc1ccccc1-c1nc(-c2cc3ccccc3nc2OC)no1,"inconclusive: 35.5 µM [inhibitor, single point]",–
Cn1cc(/C=C(\C(=O)O)C(C(=O)O)=C2CCCCC2)c2ccccc21,–,inactive: -11.8%
Cc1sc(N/N=C/c2ccco2)nc1-c1ccccc1,–,inactive: 0.994%
O=C(NCc1ccco1)c1cnn2c(C(F)(F)F)cc(-c3ccco3)nc12,"inconclusive: 28.2 µM [inhibitor, partial curve]",–
Oc1ccccc1/C=N/Nc1ccccc1,–,inactive: -12.1%
O=C(CSc1nc2ccccc2c(=O)n1Cc1ccco1)NCc1ccco1,"inconclusive: 25.1 µM [inhibitor, single point]",–

SMILES,Potency,"activity change, negative = inhibition"
CN1CCN(NC(=O)c2ccc(Br)c(S(=O)(=O)N3CCOCC3)c2)CC1,–,inactive: -9.68%
CC(C)CN(C(=O)COC(=O)c1cc2c(s1)CCC2)C1CCS(=O)(=O)C1 (configuration not stated),"inconclusive: 25.1 µM [inhibitor, single point]",–
CCOC(=O)Cn1nnc(-c2ccccc2)n1,–,inactive: 5.73%
CCCCCCCN(C(=O)CCl)c1ccccc1C,–,inactive: -4.35%
O=C(CCCCCn1c(=S)[nH]c2ccc(N3CCOCC3)cc2c1=O)NCc1ccc(Cl)cc1,"inconclusive: 22.4 µM [inhibitor, partial curve]",–
CC(C)(C)Nc1oc(-c2ccccc2)nc1-c1ccc(C(F)(F)F)cc1,–,inactive: 1.91%
CCOC(=O)c1cc2c(=O)n3ccccc3nc2n(CCOC)c1=NC(=O)C(C)(C)C,"inconclusive: 10 µM [inhibitor, partial curve]",–
O=C(O)c1cc(O)c2c(c1)[C@H]([C@H]1c3cc(C(=O)O)cc(O)c3C(=O)c3c(O[C@@H]4OC(CO)C(O)C(O)C4O)cccc31)c1cccc(O[C@@H]3OC(CO)C(O)C(O)C3O)c1C2=O (some centres not stated),active: 11.2 µM,–
COCCCNCC(=O)Nc1ccc(OC(F)(F)F)cc1,–,inactive: -18.4%
CC(C)Nc1nc(NC(N)=S)nc(NC(C)(C)C)n1,"inconclusive: 12.6 µM [inhibitor, partial curve]",–
COc1ccc(OC)c(CN2CCC(C(=O)N3CCN(c4ccccc4F)CC3)CC2)c1,"inconclusive: 25.1 µM [inhibitor, single point]",–
COc1ccc(-c2nnn3c2nc(NCc2ccccc2)c2ccccc23)cc1,"inconclusive: 3.16 µM [inhibitor, single point]",–
O=C(NCCCN1CCCC1)c1ccc2c(c1)N(Cc1ccccc1)CCS2,"inconclusive: 28.2 µM [inhibitor, partial curve]",–
Cc1onc(-c2c(Cl)cccc2Cl)c1C(=O)Nc1nc(C(C)(C)C)cs1,"inconclusive: 31.6 µM [inhibitor, partial curve]",–
Cc1nc2ccccc2n(CC(=O)Nc2cc(Cl)cc(Cl)c2)c1=O,"inconclusive: 28.2 µM [inhibitor, single point]",–
Cc1ccc(NC(=O)COc2ccc(CCO)cc2-n2nc3ccccc3n2)cc1C,"inconclusive: 31.6 µM [inhibitor, partial curve]",–
c1ccc2c(c1)Cn1c-2nc2ccccc21,"inconclusive: 25.1 µM [inhibitor, partial curve]",–
COc1cc(/C=C2\SC(=S)N(Nc3ncc(C(F)(F)F)cc3Cl)C2=O)ccc1O,–,inactive: -5.18%
CCC(=O)N1c2ccccc2NC2=C(C(=O)CC(C)(C)C2)C1c1cccnc1 (configuration not stated),"inconclusive: 28.2 µM [inhibitor, single point]",–
c1ccc(CSc2nnc3ccc(-c4ccco4)nn23)nc1,"inconclusive: 35.5 µM [inhibitor, partial curve]",–
O=C(Nc1ccc(S(=O)(=O)NCc2ccco2)cc1)c1ccc2ccccc2n1,"inconclusive: 39.8 µM [inhibitor, single point]",–
Cc1oc(-c2ccccc2Cl)nc1CN1CCCC1c1ccc(F)cc1 (configuration not stated),"inconclusive: 39.8 µM [inhibitor, single point]",–
NCC(O)C1CCCCCCC1 (configuration not stated),"inconclusive: 25.1 µM [inhibitor, single point]",–
c1csc(-c2nc3ccccc3s2)c1,"inconclusive: 31.6 µM [inhibitor, partial curve]",–
